This passage reports binding signal results from paper PMC9911399, “Two distinct binding modes provide the RNA-binding protein RbFox with extraordinary sequence specificity”.

The chains are these.
T1: RBFOX1 RRM RbFoxmut (Fox-RRM*) (Homo sapiens, UniProt Q9NWB1 109-208, R118D;E147R;N151S;E152T)
T1 sequence: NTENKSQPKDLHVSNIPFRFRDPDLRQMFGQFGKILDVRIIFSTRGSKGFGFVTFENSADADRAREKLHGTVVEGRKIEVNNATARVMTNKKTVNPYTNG

B1: UCCGAGU (DNA:RNA)
RNA: GGGAGACCGGAAUUCAGAUUGUCCUCCGAGUUUAAAUCCCGUCGUAGCCACCA
DNA 1: CAATCTGAATTCCGGTCTCCC
DNA 2: TGGTGGCTACGACGGGATT
B2: CGACGUG (DNA:RNA)
RNA: GGGAGACCGGAAUUCAGAUUGUCCCGACGUGUUAAAUCCCGUCGUAGCCACCA
DNA 1: CAATCTGAATTCCGGTCTCCC
DNA 2: TGGTGGCTACGACGGGATT
B3: AGACGAU (DNA:RNA)
RNA: B2 RNA with C25A, U30A, G31U
DNA 1: CAATCTGAATTCCGGTCTCCC
DNA 2: TGGTGGCTACGACGGGATT
B4: GUCUUCG (DNA:RNA)
RNA: B2 RNA with C25G, G26U, A27C, C28U, G29U, U30C
DNA 1: CAATCTGAATTCCGGTCTCCC
DNA 2: TGGTGGCTACGACGGGATT
B5: UAAACAA (DNA:RNA)
RNA: B2 RNA with C25U, G26A, C28A, G29C, U30A, G31A
DNA 1: CAATCTGAATTCCGGTCTCCC
DNA 2: TGGTGGCTACGACGGGATT
B6: GUCAAUC (DNA:RNA)
RNA: B1 RNA with U25G, C26U, G28A, G30U, U31C
DNA 1: CAATCTGAATTCCGGTCTCCC
DNA 2: TGGTGGCTACGACGGGATT
B7: CUGGUAU (DNA:RNA)
RNA: B1 RNA with U25C, C26U, C27G, A29U, G30A
DNA 1: CAATCTGAATTCCGGTCTCCC
DNA 2: TGGTGGCTACGACGGGATT
B8: AGUUCUU (DNA:RNA)
RNA: B2 RNA with C25A, A27U, C28U, G29C, G31U
DNA 1: CAATCTGAATTCCGGTCTCCC
DNA 2: TGGTGGCTACGACGGGATT
B9: CGUUCUG (DNA:RNA)
RNA: B2 RNA with A27U, C28U, G29C
DNA 1: CAATCTGAATTCCGGTCTCCC
DNA 2: TGGTGGCTACGACGGGATT
B10: UUUUUUU (DNA:RNA)
RNA: B1 RNA with C26U, C27U, G28U, A29U, G30U
DNA 1: CAATCTGAATTCCGGTCTCCC
DNA 2: TGGTGGCTACGACGGGATT
B11: CGUAGCU (DNA:RNA)
RNA: B2 RNA with A27U, C28A, U30C, G31U
DNA 1: CAATCTGAATTCCGGTCTCCC
DNA 2: TGGTGGCTACGACGGGATT
B12: GAGUUUA (DNA:RNA)
RNA: B2 RNA with C25G, G26A, A27G, C28U, G29U, G31A
DNA 1: CAATCTGAATTCCGGTCTCCC
DNA 2: TGGTGGCTACGACGGGATT
B13: AACUAAC (DNA:RNA)
RNA: B1 RNA with U25A, C26A, G28U, G30A, U31C
DNA 1: CAATCTGAATTCCGGTCTCCC
DNA 2: TGGTGGCTACGACGGGATT
B14: GCUUCGA (DNA:RNA)
RNA: B1 RNA with U25G, C27U, G28U, A29C, U31A
DNA 1: CAATCTGAATTCCGGTCTCCC
DNA 2: TGGTGGCTACGACGGGATT
B15: ACAAUCG (DNA:RNA)
RNA: B2 RNA with C25A, G26C, C28A, G29U, U30C
DNA 1: CAATCTGAATTCCGGTCTCCC
DNA 2: TGGTGGCTACGACGGGATT
B16: GGUCGUU (DNA:RNA)
RNA: B2 RNA with C25G, A27U, G31U
DNA 1: CAATCTGAATTCCGGTCTCCC
DNA 2: TGGTGGCTACGACGGGATT
B17: CCCUACU (DNA:RNA)
RNA: B1 RNA with U25C, G28U, G30C
DNA 1: CAATCTGAATTCCGGTCTCCC
DNA 2: TGGTGGCTACGACGGGATT
B18: AAUUGGU (DNA:RNA)
RNA: B1 RNA with U25A, C26A, C27U, G28U, A29G
DNA 1: CAATCTGAATTCCGGTCTCCC
DNA 2: TGGTGGCTACGACGGGATT
B19: CAUUAUU (DNA:RNA)
RNA: B2 RNA with G26A, A27U, C28U, G29A, G31U
DNA 1: CAATCTGAATTCCGGTCTCCC
DNA 2: TGGTGGCTACGACGGGATT
B20: CUAACAC (DNA:RNA)
RNA: B2 RNA with G26U, C28A, G29C, U30A, G31C
DNA 1: CAATCTGAATTCCGGTCTCCC
DNA 2: TGGTGGCTACGACGGGATT

Where a chain is given by its changes, count along the chain named. The list shows a part of the results.

The test deals with T1, RBFOX1 RRM RbFoxmut (Fox-RRM*). As to the kind of experiment: EMSA; HiTS-Eq, 1 nM pool, 10 min; buffer printed only for the single-RNA assays: 10 mM Tris pH 7.5, 150 mM NaCl, 3.4 mM EDTA, 0.001% NP-40, 30 C. The conditions noted are these: tags: His6 N-terminal (pET28a); label: 5' 32P. The gist of the method:
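A pool of RNA with 7 randomized nucleotides, 5′-radiolabelled and with DNA-annealed flanks, was equilibrated at 1 nM for 10 min in 50 µL with purified RbFox RRM, wild type or mutant, across increasing protein concentrations. Free RNA was separated by 8% native PAGE, excised, reverse-transcribed, barcoded by PCR and sequenced. Relative association constants were obtained from read-count changes of each RNA species versus the control reaction and normalised to the cognate motif.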
In general terms: In EMSA bound probe runs differently from free probe, usually more slowly.
As for B1, the binding signal is 0.1 KA relative to UGCAUGU. For B2 the value was 0.0961 KA relative to UGCAUGU; for B3, 0.0703 KA relative to UGCAUGU; for B4, 0.245 KA relative to UGCAUGU. Take B5: the binding signal was 0.0531 KA relative to UGCAUGU. For B6 the value was 0.0561 KA relative to UGCAUGU. For B7 the value was 0.147 KA relative to UGCAUGU; for B8, 0.086 KA relative to UGCAUGU.

For B9, the binding signal was 0.0983 KA relative to UGCAUGU.

For B10, the binding signal was 0.0992 KA relative to UGCAUGU. For B11 the value was 0.126 KA relative to UGCAUGU; for B12, 0.113 KA relative to UGCAUGU.

Take B13: the binding signal was 0.0803 KA relative to UGCAUGU. For B14, the binding signal was 0.13 KA relative to UGCAUGU.

B15: the binding signal is 0.0546 KA relative to UGCAUGU. For B16 the value was 0.12 KA relative to UGCAUGU; for B17, 0.0737 KA relative to UGCAUGU.

As for B18, the binding signal is 0.119 KA relative to UGCAUGU.

Consider B19, for which the binding signal was 0.139 KA relative to UGCAUGU. Turning to B20, the binding signal is 0.0528 KA relative to UGCAUGU.
